Experimental data as given in US11666630B2, “Polypeptides for managing viral infections” (priority 2016, dated 2023).

System: ZIKV
Experiment: ZIKV entry into Vero cells, viral RNA by qRT-PCR
Settings: ZIKV pre-incubated with 200 μM peptide 30 min, MOI 0.5, normalized to GAPDH

CC[C@H](C)[C@H](NC(=O)[C@@H](NC(=O)CNC(=O)[C@H](CC(C)C)NC(=O)[C@H](Cc1ccccc1)NC(=O)[C@H](Cc1ccccc1)NC(=O)[C@H](CC(C)C)NC(=O)[C@H](CC(C)C)NC(=O)[C@H](CC(C)C)NC(=O)[C@H](CCSC)NC(=O)[C@@H](N)CO)[C@@H](C)O)C(=O)N[C@@H](CO)C(=O)N[C@@H](CC(C)C)C(=O)N[C@@H](CO)C(=O)N[C@@H](CC(C)C)C(=O)N[C@@H](CS)C(=O)N[C@@H](CCC(N)=O)C(=O)N[C@@H](CC(=O)O)C(=O)N[C@@H](CC(=O)O)C(=O)N[C@@H](CCC(N)=O)C(=O)N[C@@H](CCC(=O)O)C(=O)N[C@@H](CCCNC(=N)N)C(=O)N[C@@H](CS)C(=O)O [Yodha peptide] (H-SMLLLFFLGTISLSLCQDDQERC-OH; N-terminus and C-terminus assumed)
ZIKV RNA expressed compared to the OVA and virus-only controls: 20%

Peptide text beside a SMILES is read from it.
